{
  "source": "PubChem BioAssay AID624296",
  "about": "(National Center for Advancing Translational Sciences (NCATS), 2012)",
  "note": "Values joined by “and” are separate entries in the source; they are usually repeats but may differ in a detail not shown here. Equal entries are not always repeated. About 9,900 (2.8%) of roughly 350,000 compounds were called active. This list was built around the results that the source calls inconclusive (neither active nor inactive); the mix of calls is not that of the screen. The call rests on the fitted dose curve; in most records, active means well fitted activation curve with a large enough effect; inconclusive means small, poorly fitted or top-dose-only effect; inactive means no such curve, though single readings can be large or run the other way. Potencies of inconclusive entries are left out as doubtful fits. Some structures have more than one record in an assay (separate samples or runs), and their calls can disagree. Potency means the concentration at half of the fitted maximal effect; tags describe the fitted curve by direction and shape.",
  "data": [
    {"experiment": "A quantitative high throughput screen for small molecules that induce DNA re-replication in MCF 10a normal breast cells; further: nearly all actives have a fitted effect of over 50% in size.", "settings": "MCF 10A DNA re-replication, Hoechst nuclear intensity, 48 h; series mostly up to 46.1 µM", "values": [
      {"smiles": "CN1OC[C@@H]2CN[C@H](c3ccccc3Br)C[C@@H]21", "Potency": "inconclusive [activator, full curve, poor fit]"},
      {"smiles": "O=C(COc1ccc2ccccc2c1)N1CCN(Cc2c[nH]c3ccccc23)CC1", "Potency": "inconclusive [activator, partial curve, poor fit]"},
      {"smiles": "CN(C)C1(CNC(=O)c2ccc(NS(=O)(=O)c3ccc(Cl)c(Cl)c3)cc2)CCCCC1", "Potency": "inconclusive [activator, single point]"},
      {"smiles": "COC(=O)C1=C(c2ccccc2)C[C@@H]2CC[C@H]1N2C", "Potency": "inactive"},
      {"smiles": "COC(=O)CSc1cc([N+](=O)[O-])cc2c1c(C1OCCO1)nn2-c1ccccc1", "Potency": "inconclusive [activator, partial curve, poor fit]"},
      {"smiles": "Cc1ccccc1CCNCc1ccc(Br)cc1", "Potency": "inconclusive [activator, partial curve, poor fit]"},
      {"smiles": "Cc1ccc2c(CN3CC=C(c4ccccc4)CC3)cc(=O)oc2c1C", "Potency": "inactive"},
      {"smiles": "COC(=O)C1=C(c2ccccc2OCc2ccccc2)C[C@@H]2CC[C@H]1N2C(=O)NCc1ccc(OC)cc1", "Potency": "inconclusive [activator, single point]"},
      {"smiles": "CCOC(=O)[C@]12Cc3cc(OC)ccc3[C@H]1N(Cc1ccccc1)C(=O)c1ccccc12", "Potency": "inactive"},
      {"smiles": "Cc1ccc(Sc2ccc(C=C3C(=O)N(C)C(=O)N(C)C3=O)o2)cc1", "Potency": "inactive"},
      {"smiles": "Cc1ccccc1-n1c(O)c(/C=C2/C(c3ccccc3)=Nc3ccccc32)c(=O)[nH]c1=O", "Potency": "active: 5.17 µM"},
      {"smiles": "O=c1c2ccccc2nc(/C=C\\c2ccccc2[N+](=O)[O-])n1-c1ccccc1O", "Potency": "inconclusive [activator, single point]"},
      {"smiles": "Clc1ccc2c(c1)C(c1ccccc1Cl)=NCc1nnc(N3CCN(CCSc4ccccc4)CC3)n1-2", "Potency": "inconclusive [activator, single point]"},
      {"smiles": "CC(C)CCNC(=O)c1cc(C(=O)c2cc(F)ccc2O)cn(CCC(C)C)c1=O", "Potency": "inconclusive [activator, partial curve, poor fit]"},
      {"smiles": "CCC(C)(C)n1nnnc1C(c1cccs1)N1CC=C(c2ccc(F)cc2)CC1", "note": "(centres undefined)", "Potency": "inconclusive [activator, single point]"},
      {"smiles": "OCCN1CCN(CCCN2c3ccccc3Sc3ccc(C(F)(F)F)cc32)CC1", "Potency": "active: 2.31 µM and active: 23.1 µM"},
      {"smiles": "Cn1cnc([N+](=O)[O-])c1Sc1ccc([N+](=O)[O-])cc1", "Potency": "inconclusive [activator, single point]"},
      {"smiles": "CCCCn1c(O)c(C(CC)=NCCN2CCOCC2)c(=O)[nH]c1=O", "Potency": "inactive"},
      {"smiles": "Nc1nc2c(s1)CCCCCCCCCC2", "Potency": "inconclusive [activator, single point]"},
      {"smiles": "Cc1cc2ccccn2c1C(C[N+](=O)[O-])c1c(F)cccc1Cl", "note": "(centres undefined)", "Potency": "active: 3.26 µM"},
      {"smiles": "CN1C(=O)/C(=C\\c2ccc(Br)s2)C(=O)NC1=S", "Potency": "inconclusive [activator, single point]"},
      {"smiles": "Cc1cccc(C)c1NC(=O)CN(C)CC(=O)Nc1ccc(C#N)c(Cl)c1", "Potency": "inconclusive [activator, full curve, poor fit]"},
      {"smiles": "Cc1cc(C)cc(N2C(=O)NC(=O)/C(=C\\C=C\\c3ccco3)C2=O)c1", "Potency": "active: 13 µM"},
      {"smiles": "O=C(Cn1cnc2sc3c(c2c1=O)CCCC3)NCCCC(=O)N1CCC2(CC1)OCCO2", "Potency": "inactive"},
      {"smiles": "C=CCn1c(O)c(/C=C2/C=CC=N2)c(=O)[nH]c1=O", "Potency": "inactive"},
      {"smiles": "O=C(Oc1ccc2cc(Br)ccc2c1)N1CCCCCC1", "Potency": "inconclusive [activator, partial curve, poor fit]"},
      {"smiles": "CCOC(=O)c1c(NC(NC(=O)CF)C(Cl)(Cl)Cl)sc2c1CCCC2", "note": "(centres undefined)", "Potency": "inconclusive [activator, partial curve]"},
      {"smiles": "Cc1ccc2cc(CNCCc3ccccc3C)c(=O)[nH]c2c1", "Potency": "inactive"},
      {"smiles": "CN(C)c1nc(OCCNC(=O)COc2ccc(Cl)cc2Cl)nc(N2CCCCC2)n1", "Potency": "inconclusive [activator, full curve, poor fit]"},
      {"smiles": "CN1CCc2nc(SCc3cccc(Br)c3)c(C#N)cc2C1", "Potency": "inconclusive [activator, single point]"},
      {"smiles": "COc1ccc(C(=O)C2CCCN(C3CSCCSC3)C2)c(OC)c1", "note": "(centres undefined)", "Potency": "inactive"},
      {"smiles": "Cc1ccc(Cl)cc1N1CCN(C(=O)c2cn(C)c(=O)c3c2c2ccccc2n3C)CC1", "Potency": "inconclusive [activator, single point]"},
      {"smiles": "COC(=O)C1=C(c2ccc(-c3ccccc3)c(F)c2)C[C@@H]2CC[C@H]1N2C(=O)N1CCOCC1", "Potency": "inactive"},
      {"smiles": "O=c1c2ccccc2nc(/C=C/c2ccc(O)c(O)c2)n1-c1ccccc1", "Potency": "inconclusive [activator, partial curve, poor fit]"},
      {"smiles": "O=C(CN1C(=O)COc2ccccc21)N1CCC2(CC1)OCCO2", "Potency": "inactive"},
      {"smiles": "CN1CCC2(CC1)CC(NC=O)c1ccccc1O2", "note": "(centres undefined)", "Potency": "inconclusive [activator, single point]"},
      {"smiles": "O=C(NC1CN2CCC1CC2)c1cc(Cl)c([N+](=O)[O-])c2nc[nH]c12", "note": "(centres undefined)", "Potency": "inconclusive [activator, partial curve, poor fit]"},
      {"smiles": "Cc1ccc(O)c(C(=O)c2cc(C(=O)NCCC(C)C)c(=O)n(CCC(C)C)c2)c1", "Potency": "inconclusive [activator, single point]"},
      {"smiles": "CCOP(=O)(OCC)c1cccc(O)c1", "Potency": "inconclusive [activator, full curve, poor fit]"},
      {"smiles": "C=CCOC(=O)COc1cc(C)cc2oc(=O)c3c(c12)CCC3", "Potency": "inconclusive [activator, partial curve, poor fit]"},
      {"smiles": "O=C1NC(=O)N(c2ccccc2)C(=O)/C1=C\\c1ccc([N+](=O)[O-])s1", "Potency": "inconclusive [activator, partial curve, poor fit]"},
      {"smiles": "CC1=CC(O)C(O)C2(C)C1CC1OC(=O)C(O)C3C(C)C(O)C4(O)OCC13C42", "note": "(centres undefined)", "Potency": "inactive"},
      {"smiles": "Cc1noc(C)c1CSc1nc2cc(S(=O)(=O)N3CCOCC3)ccc2o1", "Potency": "inconclusive [activator, partial curve, poor fit]"},
      {"smiles": "COc1ccc(CC2(CCc3ccccn3)C(=O)NC(=O)N(c3ccccc3C)C2=O)cc1OC", "note": "(centres undefined)", "Potency": "inactive"},
      {"smiles": "Cc1cccc(N2C(=O)NC(=O)/C(=C\\c3cnn(-c4ccccc4)c3)C2=O)c1", "Potency": "inconclusive [activator, single point]"},
      {"smiles": "COc1ccc(NC(=O)Cn2c3ccccc3c3nc4n(c(=O)c32)CCS4)cc1", "Potency": "active: 20.6 µM"},
      {"smiles": "N#Cc1c(Cl)nc(Cl)c2c1CCN(Cc1ccccc1)C2", "Potency": "inconclusive [activator, single point]"},
      {"smiles": "C=CCN1C(=O)NC(=O)/C(=C/c2ccc(OC)c(COc3ccc(NC(C)=O)cc3)c2)C1=O", "Potency": "inconclusive [activator, single point]"},
      {"smiles": "FC(F)(F)c1ccccc1CNCCc1c[nH]c2ccccc12", "Potency": "active: 10.3 µM"},
      {"smiles": "COc1ccc(CC(=O)Nc2ccc3c(C(F)(F)F)cc(=O)oc3c2)cc1OC", "Potency": "inactive"},
      {"smiles": "C[C@]12CC[C@H](O)C[C@H]1CC[C@@H]1[C@@H]2C[C@@H](O)[C@]2(C)[C@@H](C3=CC(=O)OC3)CC[C@]12O", "Potency": "inconclusive [activator, full curve, poor fit]"},
      {"smiles": "CC/C(=C\\C=C\\[C@@H]1C=C[C@@H]2CCC[C@H]2[C@@H]1C(=O)c1ccc[nH]1)[C@@H]1O[C@@H]([C@@H](C)C(=O)O)CC[C@@H]1C", "Potency": "inconclusive [activator, partial curve, poor fit]"},
      {"smiles": "NCCc1c[nH]c2ccccc12", "Potency": "inactive"},
      {"smiles": "O=C1N[C@@H](Cc2ccccc2)C(=O)N2[C@H]3Nc4ccccc4[C@@]3([C@]34C[C@H]5C(=O)N[C@@H](Cc6ccccc6)C(=O)N5[C@H]3Nc3ccccc34)C[C@@H]12", "Potency": "inconclusive [activator, single point]"},
      {"smiles": "O=Cc1cn(Cc2cccc(F)c2)c2ccccc12", "Potency": "inconclusive [activator, partial curve, poor fit]"},
      {"smiles": "O=C(CSC1c2ccccc2-c2ccccc21)N/N=C/c1ccccc1O", "Potency": "active: 2.06 µM"},
      {"smiles": "COc1ccc2c(CCN)c[nH]c2c1", "Potency": "inconclusive [activator, single point]"},
      {"smiles": "CCC(C)NC(=O)CCC(=O)OC1O[C@H]2OC3(C)CC[C@H]4[C@H](C)CCC(C1C)C24OO3", "note": "(some centres undefined)", "Potency": "inconclusive [activator, partial curve, poor fit]"},
      {"smiles": "COC(=O)Cn1cc(/C=C2\\C(=O)NC(=O)N(c3ccccc3)C2=O)c2ccccc21", "Potency": "inconclusive [activator, single point]"},
      {"smiles": "C=C1C(C)C2C(Cc3ccccc3)NC(=O)C23OC(=O)/C=C/C(O)CCCC(C)C/C=C/C3C1O", "note": "(centres undefined)", "Potency": "active: 6.51 µM"},
      {"smiles": "C=C(C)[C@@H]1CC[C@]2(C(=O)O)CC[C@]3(C)[C@H](CC[C@@H]4[C@@]5(C)CC[C@H](O)C(C)(C)[C@@H]5CC[C@]43C)[C@@H]12", "Potency": "inconclusive [activator, full curve, poor fit]"},
      {"smiles": "Cc1c(C(=O)Nc2ccccc2)c2cc(O)ccc2n1Cc1ccccc1", "Potency": "inconclusive [activator, single point]"},
      {"smiles": "O=C(Nc1ccc2c(c1)OCO2)c1cn(Cc2ccc(F)cc2)nn1", "Potency": "inconclusive [activator, single point]"},
      {"smiles": "C[n+]1c(-c2ccccc2)cc(-c2ccc(Cl)cc2)cc1-c1ccccc1", "Potency": "inactive"}
    ]}
  ]
}
